# According to PubChem BioAssay AID2675 (National Center for Advancing Translational Sciences (NCATS), 2010):
# Among all 280,000 compounds or so, about 100 (0.036%) were called active. Inconclusive results, whose numbers are uncertain, are shown with a selection of clear calls. The call rests on the fitted dose curve; in most records, active means well fitted inhibition curve with a large enough effect in the signal ratio, with a control signal flat (not every such curve was filed as active); inconclusive means small, poorly fitted or top-dose-only effect, or effect the other way, or a change in a side signal; inactive means no such curve, though single readings can be large or run the other way; the % refers to the signal ratio. Where the call is inconclusive, the potency comes from a doubtful curve fit. A note “side channel” means that the fit belongs to a control or component signal, not to the main read-out.
# Biological target: Muscleblind-like protein 1 (Homo sapiens) (UniProt Q9NR56)
# Test: qHTS Assay for Inhibitors of MBNL1-poly(CUG) RNA binding
# Conditions: TR-FRET MBNL1-His/biotin-(CUG)12 binding, 665/545 ratio; series mostly up to 57.5 µM
# Summary of the method: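 Inhibition of protein-RNA binding appears as loss of TR-FRET between terbium anti-His antibody on MBNL1-His and streptavidin-XL665 on biotin-(CUG)12. Activity is normalized to buffer-only and uninhibited-complex controls.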
# Potency means the concentration at half of the fitted maximal effect; tags describe the fitted curve by direction and shape or compound fluorescence and quenching.
# UniProt Q9NR56, sequence (Q9NR56 whole entry, looked up): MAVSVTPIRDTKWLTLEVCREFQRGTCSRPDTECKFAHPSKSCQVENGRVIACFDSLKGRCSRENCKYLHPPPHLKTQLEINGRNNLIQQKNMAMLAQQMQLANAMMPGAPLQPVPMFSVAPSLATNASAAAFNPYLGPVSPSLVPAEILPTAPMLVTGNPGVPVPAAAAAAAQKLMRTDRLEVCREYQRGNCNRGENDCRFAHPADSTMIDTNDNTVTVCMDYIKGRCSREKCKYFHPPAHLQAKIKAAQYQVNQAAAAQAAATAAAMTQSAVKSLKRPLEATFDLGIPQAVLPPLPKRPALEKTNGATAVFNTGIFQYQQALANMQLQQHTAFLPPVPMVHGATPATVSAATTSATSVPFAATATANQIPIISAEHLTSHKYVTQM
row,Compound,Potency
1,C/C(=N\NC(=O)c1cc(C)nc2ccccc12)c1ccc([N+](=O)[O-])cc1,"inconclusive: 10 µM [quencher, side channel, partial curve]"
2,CCOc1cccc2cc(C(=O)Oc3ccc(OC)cc3)c(=O)oc12,"inconclusive: 12.6 µM [quencher, side channel, partial curve]"
3,CCN(CC)c1ccc(/C=N/NC(=O)c2ccco2)cc1,"inconclusive: 25.1 µM [quencher, side channel, partial curve]"
4,O=C(O)c1ccccc1Nc1ccc([N+](=O)[O-])c2nonc12,"inconclusive: 2 µM [quencher, side channel, full curve]"
5,COC(=O)CCc1c(C)c(C(=O)c2cccc(OC)c2OC)c2ccccn12,"inconclusive: 28.2 µM [quencher, single point]"
6,COc1ccccc1-c1noc(CCCC(=O)NC2CCCC2)n1,inactive
7,CC1=NN(C(N)=S)C(=O)C1N=Nc1ccc(S(N)(=O)=O)cc1 (configuration not stated),"inconclusive: 14.1 µM [quencher, side channel, partial curve]"
8,C/C(CC(=O)Nc1ccccn1)=N\NC(=O)c1ccc([N+](=O)[O-])cc1Cl,"inconclusive: 7.08 µM [quencher, side channel, partial curve]"
9,CC(C(=O)NCC1CCCO1)N(C(=O)c1snc(C(N)=O)c1N)c1cccc(F)c1 (configuration not stated),"inconclusive: 20 µM [quencher, side channel, partial curve, poor fit]"
10,Brc1ccc(/C=N/Nc2ccc3ccccc3n2)cc1,inactive
11,Cc1c(NC(=O)c2ccco2)cccc1-c1nc2cccnc2s1,"inconclusive: 0.794 µM [quencher, side channel, single point]"
12,CC(NC(=O)c1sc2cc([N+](=O)[O-])ccc2c1Cl)C(C)(C)C (configuration not stated),inactive
13,CCc1cc(C(=O)OC)c(NC(=O)CN2CCN(C(=O)C3CCCO3)CC2)s1 (configuration not stated),"inconclusive: 28.2 µM [fluorescent, side channel, single point]"
14,Cc1cccn2c(=O)c(C=O)c(N3CCCCCC3)nc12,"inconclusive: 31.6 µM [quencher, side channel, single point]"
15,c1ccc(CN(Cc2ccco2)C(c2ccncc2)c2nnnn2C2CCCC2)cc1 (configuration not stated),"inconclusive: 39.8 µM [quencher, side channel, single point]"
16,CCN(C(=O)CN1C(=O)S/C(=C\C=C\c2ccccc2)C1=O)C1CCS(=O)(=O)C1 (configuration not stated),inactive
17,Cc1nc(S/C(=C\c2ccc(OCc3ccccc3Cl)cc2)C(=O)O)n[nH]1,inactive
